# From paper PMC12136788
# This is one part of the list.
# B1: chrX:30828625:30828726:-|3pUTR|ENSG00000157625|msi1|total|mutant (ssRNA)
# RNA: GGGAGUUCUACAGUCCGACGAUCUUCUUGUUUCUUGUAAGAGGUUUCUUUAAAAUGACCCGUUUGAUGUAUCUGGUAACAUACCGGCCUGACUAUACAUUUUACAUUAUUUCGCUAUUUUGUAAACUGGGAUUUCCGAAAGCACAACAGAGGAUUGAGCAUCA
# B2: ENSG00000070961:be:win_5851|3pUTR|ENSG00000070961|bound_else_gene|NA|bound_elsewhere_windowed (ssRNA)
# RNA: GGGAGUUCUACAGUCCGACGAUCAUGAAUGUAAUUACCAAAAGAUUUAGAAGUGCAUGUGCUUUGGAGGAUUUGUAUUGAGCUUUUACAGUAUUCAUUUUUCAACUCAAGGCAAUGGCUUUCUACACCAACUCUAAUCCAUAACAACAGAGGAUUGAGCAUCA
# B3: chr12:89642165:89642281:-|CDS|ENSG00000070961|unk|total|mutant (ssRNA)
# RNA: GGGAGUUCUACAGUCCGACGAUCGCCAAAAACCUUUCUUCAAUCCGUAUGGGAAGCAUUACAAGAUGUCACUUUAAUUAUAUCCGAAAUUGCAGCCACCGUAUCAUUGGGCCUUUCUUUUUAUCAGCCUCCAGAAGGGGAUAACAACAGAGGAUUGAGCAUCA
# B4: ENSG00000107863:be:win_4701|CDS|ENSG00000107863|bound_else_gene|NA|bound_elsewhere_windowed (ssRNA)
# RNA: GGGAGUUCUACAGUCCGACGAUCCAGUCCAGAAACGAAACAUAGCGAGUUUUUGGCCAACGUCAGCACCAUCACCUCAGAUUAUUCCACCACAUCGUCUGCUACAUACUUGACUAGCCUGGACUCCAGUCGACUGAGCCCUGACAACAGAGGAUUGAGCAUCA
# B5: chrX:12823584:12823685:+|3pUTR|ENSG00000101911|unk|total|mutant (ssRNA)
# RNA: GGGAGUUCUACAGUCCGACGAUCUGACUUAAAGGUAAUCAUUUCAGCUAAGAUUAAAUUUAAAGCCUAAGAAUGUACCGAGCCCGUUUUAAAAUAAUGAUCUCAGAUUUUUAAAAAGGAUACCGGAACCUGCAUUGUCAUUCUCAACAGAGGAUUGAGCAUCA
# B6: chr2:148946928:148947042:+|CDS|ENSG00000168280|unk|total|mutant (ssRNA)
# RNA: GGGAGUUCUACAGUCCGACGAUCGAAUGAACACAGCUCCCGAAGUCACAGUAUCUUCCUGAUAAAUAUUAAACAAGAGAAUGCCGAGACUGAAAAAAAACUCAGUGGGAAACUUUAUUUGGUUGAUUUGGCUGGGAGCGAAAACAACAGAGGAUUGAGCAUCA
# B7: ENSG00000136888:stop:overlap|stop_codon|ENSG00000136888|stop_codon|NA|stop_codon (ssRNA)
# RNA: GGGAGUUCUACAGUCCGACGAUCUCUUGGCUUUUGUCUGUGACAUUCGGCCAGAAAUCCAUGAAAACUACCGCAUAAAUGGAUAGAAGAGAGAAGCACCUGUGCUGUGGAGUGGCAUUUUAGAUGCCCUCACGAAUAUGAAGCCAACAGAGGAUUGAGCAUCA
# B8: chr18:67510860:67510961:-|3pUTR|ENSG00000171451|msi1|FALSE|bound_elsewhere (ssRNA)
# RNA: GGGAGUUCUACAGUCCGACGAUCACUAAUAAUACUUACCAACCCACUUUGUGGAUAUGAAUCAGAAGAGUUUGUUUAUUCUUUAGUGUGUGUGUGUGUGUGCACGCGUGUAUGUGUUCAGUGUUGUUUGCACAGAGAGAUUGUCAACAGAGGAUUGAGCAUCA
# B9: ENSG00000117139:stop:overlap|stop_codon|ENSG00000117139|stop_codon|NA|stop_codon (ssRNA)
# RNA: GGGAGUUCUACAGUCCGACGAUCAUGAAUACUGUUUGUUUUUUGUUUUUCCUUCCAGAUUAGACUUUGGGGGAUUUCUUAUAUAGAAUAAAGGGCUUGAUUAUAUGUAGCCUCUAUCCUGGAGAAAGGUUAUGUAAUUUGGACCAACAGAGGAUUGAGCAUCA
# B10: chr1:152032676:152032810:-|CDS|ENSG00000163191|unk|FALSE|unique (ssRNA)
# RNA: GGGAGUUCUACAGUCCGACGAUCGGACCCUGGUGUCCUUGACCGCAUGAUGAAGAAACUGGACACCAACAGUGAUGGUCAGCUAGAUUUCUCAGAAUUUCUUAAUCUGAUUGGUGGCCUAGCUAUGGCUUGCCAUGACUCCUUCAACAGAGGAUUGAGCAUCA
# B11: chr8:70573615:70573716:-|3pUTR|ENSG00000067167|msi1|FALSE|unique (ssRNA)
# RNA: GGGAGUUCUACAGUCCGACGAUCCAGUGUUCACAUCUUGUUCCCCAUUUCUCACUUGUGUCACCAGCUGUUUGUGCCAUUUUUAGUGUAAAAGUUGCAGACCUAUUAGAUCUGCAGUUUAAGUUGCCAUGCUGCUAGGAAAUUCAACAGAGGAUUGAGCAUCA
# B12: chr12:110350735:110350839:+|3pUTR|ENSG00000174437|unk|FALSE|unique (ssRNA)
# RNA: GGGAGUUCUACAGUCCGACGAUCUACAGUUUGCUUAUUUAUAAAUUCAUUAAAAACACUACAGGUGUUGAAUGGUUAAAAUGUAGGCCUCCAGUUCAUUUUCAGUUAUUUUCUGAGUGUGCAGACAGCUAUUUCGCACUGUAUCAACAGAGGAUUGAGCAUCA
# B13: chr22:38864602:38864703:-|3pUTR|ENSG00000183741|msi1|total|mutant (ssRNA)
# RNA: GGGAGUUCUACAGUCCGACGAUCGCUGUGCUGCCAUGGGCCCCUCCCUCAGAAGCACGUUGGCAGGAGGCCGAUCAGAACCCCCGCGCCUUUGGUCCUAAGAAUGGGAGGCUGCCUUCCUUCCCAAUCUCCCUGCCAGGGCCCCAACAGAGGAUUGAGCAUCA
# B14: chr4:103158754:103158855:-|CDS|ENSG00000138778|msi1|total|mutant (ssRNA)
# RNA: GGGAGUUCUACAGUCCGACGAUCGGAGAAAACACGUGAGGUUCAAGAAAGACUAAAUGAGAUGGAACAGCUGAAGGAACAAUCCGAAAACCGAGAUUCUACGCUGCAAACUGCCGAAAGGGAGAAAACACUGAUUACUGAGAACAACAGAGGAUUGAGCAUCA
# Molecular target: T1, UNK ZnF1-6 (called full-length) (human, UniProt Q9C0B0 30-357)
# T1 sequence: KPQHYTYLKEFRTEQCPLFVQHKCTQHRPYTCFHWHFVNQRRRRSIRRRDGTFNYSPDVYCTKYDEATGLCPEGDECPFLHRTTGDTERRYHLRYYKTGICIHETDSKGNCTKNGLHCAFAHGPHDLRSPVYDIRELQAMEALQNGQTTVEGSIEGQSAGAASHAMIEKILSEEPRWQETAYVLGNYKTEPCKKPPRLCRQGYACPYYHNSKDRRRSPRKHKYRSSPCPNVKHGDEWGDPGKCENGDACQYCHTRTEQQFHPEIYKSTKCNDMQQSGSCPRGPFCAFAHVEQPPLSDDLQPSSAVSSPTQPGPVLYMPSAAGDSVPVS
# Test: nsRBNS (natural sequence RNA bind-n-seq); RBNS binding buffer (assumed for nsRBNS): 25 mM Tris pH 7.5, 150 mM KCl, 3 mM MgCl2, 0.01% Triton X-100, 500 ug/ml BSA, 20 U/ml SUPERase-In, 4 C; UNK is unkempt and MSI1 is Musashi-1; names of the RNAs are library labels; protein concentration not given here; high values mean tight binding
row,Binder,binding signal [enrichment R]
1,B1,0.359
2,B2,0.908
3,B3,0.534
4,B4,0.577
5,B5,0.334
6,B6,0.659
7,B7,0.81
8,B8,0.366
9,B9,0.658
10,B10,0.414
11,B11,0.536
12,B12,0.716
13,B13,1.16
14,B14,0.661
